Laboratory results: PubChem BioAssay AID624255 (Broad Institute, 2012)
Screen size: about 77,000 compounds; about 4,600 (6%) were called active. The shares of active, inactive and inconclusive entries below differ from those in the screen.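 The calls were made as follows: active = mean inhibition above about 93%, with at least 55% of replicates each passing it (limit read from the data, passing the limit was not always enough); inconclusive = only one of those two conditions holds; inactive = neither condition holds.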

assay: T. cruzi intracellular proliferation inhibitors, primary screen, cell-based, beta-gal Tulahuen parasites, NIH3T3 host, luminescence (AID 624255); conditions: T. cruzi beta-gal in NIH3T3, GalScreen luminescence, 90 h; at 8.34 µM; stronger effect = higher value

SMILES	inhibition
C[C@H]1CN([C@@H](C)CO)S(=O)(=O)c2ccc(C#Cc3ccccc3)cc2O[C@@H]1CN(C)S(=O)(=O)c1cn(C)cn1	inconclusive: 82.5%
C[C@H](CO)N1C[C@H](C)[C@@H](CN(C)C(=O)C2CCCCC2)Oc2cc(C#CC3CC3)ccc2S1(=O)=O	inconclusive: 116%
COc1ccc(C#Cc2cnc3c(c2)C(=O)N([C@H](C)CO)C[C@@H](C)[C@H](CN(C)C(C)=O)O3)cc1	inconclusive: 97.6%
C[C@@H]1CCCCO[C@@H](CN(C)S(=O)(=O)c2ccc(F)cc2)[C@H](C)CN([C@H](C)CO)C(=O)c2cc(NC(=O)C3CCCCC3)ccc2O1	active: 101%
Cc1ccc(S(=O)(=O)NCC[C@@H]2CC[C@H](NC(=O)Nc3cccc(F)c3)[C@H](CO)O2)cc1	inactive: -19.2%
CC(C)CC#Cc1cnc2c(c1)C(=O)N([C@@H](C)CO)C[C@H](C)[C@@H](CN(C)S(=O)(=O)c1ccccc1)O2	inconclusive: 120%
CC(C)CC#Cc1ccc2c(c1)O[C@@H](CN(C)C(=O)NC1CCCC1)[C@H](C)CN([C@H](C)CO)S2(=O)=O	active: 123%
CNC[C@H]1Oc2cc(C#CCC3CCCC3)ccc2S(=O)(=O)N([C@H](C)CO)C[C@H]1C	inconclusive: 102%
COc1ccccc1S(=O)(=O)N(C)C[C@@H]1Oc2cc(C#CCC(C)C)ccc2S(=O)(=O)N([C@@H](C)CO)C[C@@H]1C	inconclusive: 86.5%
N#C[C@@H]1[C@H](c2ccc(C#Cc3cccc(F)c3)cc2)[C@@H](CO)N1C(=O)C1CCC1	active: 107%
O=C(C[C@@H]1CC[C@@H]2[C@H](COC[C@H](O)CN2S(=O)(=O)c2ccc(F)cc2)O1)NCC1CCCCC1	inconclusive: 96.5%
C[C@@H]1CCCCO[C@@H](CN(C)C(=O)NC2CCCCC2)[C@H](C)CN([C@H](C)CO)C(=O)c2cc(NC(=O)Nc3ccc4c(c3)OCO4)ccc2O1	active: 105%
C[C@H](CO)N1C[C@H](C)[C@H](CN(C)C(=O)Nc2ccc(C(F)(F)F)cc2)OCCCC[C@H](C)Oc2ccc(NC(=O)Nc3ccc(C(F)(F)F)cc3)cc2C1=O	active: 126%
O=S(=O)(c1ccccc1)N1C[C@H]2[C@@H](c3ccccc31)[C@H](CO)N2Cc1ccc2c(c1)OCO2	inconclusive: 97.7%
C[C@@H](NC(=O)[C@@H]1[C@@H](CO)[C@@H]2Cn3c(cccc3=O)[C@H]1N2Cc1cccnc1)c1ccccc1	inactive: -4.98%
C[C@@H]1CN([C@H](C)CO)C(=O)c2cccc(NS(=O)(=O)c3ccc(Cl)cc3)c2O[C@H]1CN(C)Cc1ccc(Oc2ccccc2)cc1	inconclusive: 101%
CCCN(C)C[C@@H]1Oc2cc(C#Cc3ccc(F)cc3)ccc2S(=O)(=O)N([C@@H](C)CO)C[C@@H]1C	active: 85.4%
C[C@@H]1CN([C@@H](C)CO)C(=O)Cc2cc(NC(=O)CCCCCC(=O)Nc3ccccc3N)ccc2O[C@@H]1CN(C)S(=O)(=O)c1cn(C)cn1	inactive: 12.7%
COc1ccc(NC(=O)Nc2ccc3c(c2)C(=O)N([C@@H](C)CO)C[C@@H](C)[C@H](CN(C)C(=O)C2CCCCC2)OCCCC[C@@H](C)O3)cc1	inconclusive: 98.3%
C[C@@H]1CN([C@@H](C)CO)S(=O)(=O)c2ccc(C#Cc3ccc(F)cc3)cc2O[C@@H]1CN(C)S(C)(=O)=O	inconclusive: 96.7%
CCC(=O)Nc1ccc2c(c1)C(=O)N(C)C[C@H](OC)[C@@H](C)CN(Cc1ccncc1)[C@@H](C)CO2	inconclusive: 74.6%
C[C@H](CO)N1C[C@H](C)[C@H](CN(C)C(=O)NC2CCCCC2)OCCCC[C@H](C)Oc2ccc(N(C)C)cc2C1=O	active: 111%
O=C(C[C@H]1CC[C@@H]2[C@H](COC[C@@H](O)CN2C(=O)Nc2ccccc2)O1)NCc1ccccc1F	inactive: -29.1%
O=C(C[C@@H]1CC[C@@H]2[C@H](COC[C@@H](O)CN2CCC(F)(F)F)O1)N1CCC(Cc2ccccc2)CC1	inconclusive: 97.7%
Cc1ccc(S(=O)(=O)N(C)C[C@H]2OCCCC[C@@H](C)Oc3ccc(NC(=O)NC(C)C)cc3C(=O)N([C@H](C)CO)C[C@@H]2C)cc1	inactive: -58.2%
CN(C)CC(=O)N[C@H]1CC[C@@H](CC(=O)NCc2ccc(Cl)cc2)O[C@@H]1CO	inactive: 15.9%
OC[C@@H]1[C@H](c2ccc(C3=CCCCC3)cc2)[C@@H]2CN(CCC(F)(F)F)CCCCN12	inconclusive: 96.1%
Cc1ccc(S(=O)(=O)Nc2ccc3c(c2)C(=O)N([C@H](C)CO)C[C@@H](C)[C@@H](CN(C)Cc2ccc4c(c2)OCO4)OCCCC[C@@H](C)O3)cc1	inconclusive: 98.9%
CNC[C@H]1Oc2ccc(NS(=O)(=O)c3cn(C)cn3)cc2CC(=O)N([C@H](C)CO)C[C@@H]1C	inactive: -6.91%
